Data: the supplement of paper PMC12009370
The list shows a part of the results. Single values are uncertain, as repeats are few or missing.

What was measured:
[1] = system: IMR-32; experiment: drug sensitivity score (DSS), single drug with vehicle (DSS (score)); higher = more cytotoxic; extreme values may be limits of the assay; details: 72 h; co-treatment: vehicle (DMSO)
[2] = system: SK-N-AS; experiment: as above; details: 72 h; co-treatment: vehicle (DMSO)
[3] = system: SK-N-AS; experiment: drug sensitivity score (DSS) in combination with SL-176 (DSS (score)); higher = more cytotoxic; extreme values may be limits of the assay; details: 72 h; co-treatment: SL-176 11.2 uM (IC25 in IMR-32)
[4] = system: IMR-32; experiment: as above; details: 72 h; co-treatment: SL-176 11.2 uM (IC25 in IMR-32)
[5] = system: SK-N-AS; experiment: drug sensitivity score (DSS) in combination with GSK2830371 (DSS (score)); neuroblastoma lines; SL-176 and GSK2830371 are WIP1 inhibitors; higher = more cytotoxic; extreme values may be limits of the assay; details: 72 h; co-treatment: GSK2830371 at IC25 in IMR-32
[6] = system: IMR-32; experiment: as above; details: 72 h; co-treatment: GSK2830371 at IC25 in IMR-32
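Throughout, for drug sensitivity score (DSS) in combination with GSK2830371: neuroblastoma cells in 384-well plates, each compound at five concentrations, luminescence read-out, DSS derived from fitted concentration-response curve combining IC50 with minimum and maximum inhibition.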
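Throughout, for drug sensitivity score (DSS) in combination with SL-176: cells in 384-well plates, luminescence read-out, each screening drug at five concentrations, DSS derived from the fitted concentration-response curve combining IC50 with minimum and maximum inhibition.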
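Throughout, for drug sensitivity score (DSS), single drug with vehicle: 384-well screen with five concentrations per compound and a luminescence read-out, DSS computed from the fitted dose-response curve combining IC50 with minimum and maximum inhibition.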

SMILES	drug sensitivity score [1]	drug sensitivity score [2]	drug sensitivity score [3]	drug sensitivity score [4]	drug sensitivity score [5]	drug sensitivity score [6]
NC(=O)Nc1cc(-c2cccc(F)c2)sc1C(=O)N[C@H]1CCCNC1	8.6	13.1	10.7	9.2	13	5.8
CCn1c(-c2nonc2N)nc2c(C#CC(C)(C)O)ncc(OC[C@H]3CCCNC3)c21	2.6	1.1	0.3	2.3	0.2	5.6
CN(C)C1CCN(C(=O)c2ccc(NC(=O)Nc3ccc(-c4nc(N5CCOCC5)nc(N5CCOCC5)n4)cc3)cc2)CC1 [Gedatolisib]	11.9	10.3	10.1	12.9	10.4	16.3
CC(=O)OC[C@H]1O[C@@H]([S-])[C@H](OC(C)=O)[C@@H](OC(C)=O)[C@@H]1OC(C)=O.CCP(CC)CC.[Au+] [Auranofin]	4.9	6.3	7	5.1	5.5	8.4
C[C@@H]1CN(C(=O)c2ccc(NC(=O)c3cc(O[C@H](C)c4c(Cl)ccc(F)c4Cl)c(N)nn3)cc2)C[C@H](C)N1 [Ensartinib]	5.5	1.8	3.4	6.8	1.8	4.1
O=C(/C=C\n1cnc(-c2cc(C(F)(F)F)cc(C(F)(F)F)c2)n1)NNc1ccccn1 [Verdinexor]	17.5	7.9	8	17.4	6.1	19.9
CC[C@@](C)(Nc1ccnc(-c2c[nH]c3ncccc23)n1)C(=O)NCC(F)(F)F [Decernotinib]	1.1	0	0	0	0	0.3
Cn1cncc1[C@@](N)(c1ccc(Cl)cc1)c1ccc2c(c1)c(-c1cccc(Cl)c1)cc(=O)n2C [Tipifarnib]	10.9	7.9	7.2	14.9	7.7	15.6
Cn1ncc(Cl)c1-c1cc(C(=O)N[C@H](CN)Cc2cccc(F)c2)sc1Cl [Afuresertib]	0	0.6	0.4	0	0.3	0
CCS(=O)(=O)Nc1ccc(Oc2ccc(F)cc2F)c(-c2cn(C)c(=O)c3[nH]ccc23)c1 [Mivebresib]	26.7	19.6	19.9	27.5	20.3	34.7
C/C(=C\c1csc(C)n1)[C@@H]1C[C@@H]2O[C@]2(C)CCC[C@H](C)[C@H](O)[C@@H](C)C(=O)C(C)(C)[C@@H](O)CC(=O)N1 [Ixabepilone]	6.2	5.3	4.4	6.9	5.6	4.8
C=CCn1c(=O)c2cnc(Nc3ccc(N4CCN(C)CC4)cc3)nc2n1-c1cccc(C(C)(C)O)n1	19	19.9	19.7	21	19.6	19
COc1ccc(COc2cc3oc(=O)c4cc(C(C)O)ccc4c3cc2OC)cc1 (configuration not stated) [Palomid-529]	0.4	2.2	3.1	0	1.9	2.4
Cc1nc(-c2cn3c(n2)-c2ccc(-c4cnn(C(C)(C)C(N)=O)c4)cc2OCC3)n(C(C)C)n1 [Taselisib]	1	3.5	5.5	4.5	4.3	5.6
Cc1ccc(C(=O)Nc2ccc(Oc3cc4cnn(C)c4cc3-c3cn[nH]c3)c(F)c2)c(=O)n1-c1ccc(F)cc1 [Merestinib]	0.5	0	0	0.8	0	1.2
Cc1noc2c1-c1ccccc1C(c1ccc(Cl)cc1)=N[C@H]2CC(N)=O	7.1	7.1	8	8.6	6.6	11
O=C(Nc1cccc(NC(=O)c2cccc(O)c2O)c1)c1cccc(O)c1O	21.6	17	19.6	25	16.9	24.8
O=C(Nc1cc(Cl)cc2c1[nH]c1cnccc12)c1cccnc1	3.5	0.1	0.4	0.5	0.4	5
N#Cc1ccc(COC[C@H]2O[C@@H](n3c(NCc4ccc(Cl)c(Cl)c4)nc4c(N)ncnc43)[C@H](O)[C@@H]2O)cc1	4.5	7.2	8.1	7.7	7.7	7.2
COc1cccc(-c2ccc(NC(=O)C3=C(C(=O)O)CCC3)c(F)c2)c1 [Vidofludimus]	7.8	0.9	1.2	4.6	1.2	7.4
C=CC[C@@H]1/C=C(\C)C[C@H](C)C[C@H](OC)[C@H]2O[C@@](O)(C(=O)C(=O)N3CCCC[C@H]3C(=O)O[C@H](/C(C)=C/[C@@H]3CC[C@@H](O)[C@H](OC)C3)[C@H](C)[C@@H](O)CC1=O)[C@H](C)C[C@@H]2OC [Tacrolimus]	0	2.1	4	4.3	1.6	0
Cc1c(C(=O)Nc2ccc(N3C[C@@H](C)O[C@@H](C)C3)nc2)cccc1-c1ccc(OC(F)(F)F)cc1 [Sonidegib]	0	0	1.2	0	0	12.7
